Reference: ChEMBL document CHEMBL4888484, “Replenishing the malaria drug discovery pipeline: Screening and hit evaluation of the MMV Hit Generation Library 1 (HGL1) against asexual blood stage Plasmodium falciparum ,using a nano luciferase reporter read-out” (2022)
Screen size: about 150,000 compounds; about 540 (0.36%) showed an effect of 50% or more. This is one part of the list.

What follows are molecules tested on Plasmodium falciparum (assay: Primary screen in NF54 nanoGlo assay, in single point, at 2uM, 72h; a lower Z score goes with more inhibition). Conditions: timepoint 72 hour.
Format: functional, Erythrocyte
With `CCOc1ccc(CN2C(=O)CCC2(C)C(=O)NC2CCCC(C)C2C)cc1OC` (stereo not drawn) the “% Inhibition” value was -19% and the Z score was 3.02.
In the case of `O=C(CCN1C(=O)C[C@@H](c2cccs2)NC1=O)N1CCCCCC1`, the “% Inhibition” value was -18% and the Z score was 2.74.
`Cc1cc(N2CCn3c(nc4cc(Cl)ccc43)C2)ccc1NC(=O)CCc1ccccc1` was tested, and the “% Inhibition” value was -7% and the Z score was 1.01.
For `Cc1noc(C)c1C(=O)N1CCCCO1`, the “% Inhibition” value was -2% and the Z score was 0.21.
In the case of `CCCC(=O)Nc1c(C)cc(C)cc1C`, the “% Inhibition” value was -7% and the Z score was 1.09.
`COc1ccccc1N1C(=O)CN(S(=O)(=O)c2ccccc2)C[C@@]1(C)C(=O)NC1CCCC1` was tested, and the “% Inhibition” value was -17% and the Z score was 2.09.
With `COc1ccc(Cl)cc1S(=O)(=O)N1CCC2(CC1)c1nccn1CCN2C` the “% Inhibition” value was -12% and the Z score was 1.6.
With `CCCCN(CCO)C(=O)Nc1ccc(Br)cc1C` the “% Inhibition” value was 6% and the Z score was -0.66.
With `CC(C)(C)CN1C[C@]23C=C[C@H](O2)C(C(=O)N2CCNC(=O)CC2)C3C1=O` (stereo partly drawn) the “% Inhibition” value was 5% and the Z score was -0.83.
With `Cc1nc[nH]c1-c1c(-c2ccccc2)ncn1Cc1cc(CC(C)C)on1` the “% Inhibition” value was 3% and the Z score was -0.34.
For `Cn1cc(CCNC(=O)C2(O)CCC2)c2ccc(Cl)cc21`, the “% Inhibition” value was -9% and the Z score was 1.43.
For `CC1CC(C)CN(C(=O)CNCCn2cccn2)C1` (stereo not drawn), the “% Inhibition” value was -13% and the Z score was 1.85.
With `O=C(Nc1ncc(Cc2ccccc2)s1)[C@@H]1CC=CCC1` the “% Inhibition” value was -4% and the Z score was 0.59.
For `C[C@@H](CC(N)=O)N(C)S(=O)(=O)c1cc(Cl)c(Cl)s1`, the “% Inhibition” value was -10% and the Z score was 1.44.
With `Cc1ccccc1C1=NO[C@@H](CN(Cc2ccc(F)cc2)C(=O)CC(C)C)C1` the “% Inhibition” value was -8% and the Z score was 0.83.
In the case of `Cc1nc2cc(NC(=O)c3nonc3C)ccc2o1`, the “% Inhibition” value was 0% and the Z score was 0.03.
For `CCc1nn(C)c(Cl)c1CN1CCC2(CC1)CN(CCC(C)C)C(=O)O2`, the “% Inhibition” value was -12% and the Z score was 2.43.
`Cn1cccc1CN1CCC([C@](C)(O)C(F)(F)F)CC1` was tested, and the “% Inhibition” value was -13% and the Z score was 1.61.
For `CCCN(CC(=O)O)C(=O)[C@H]1CCN(C)C(=O)C1`, the “% Inhibition” value was -10% and the Z score was 1.57.
With `CC(C)(CO)NC(=O)c1ccnc(OCC(F)F)c1` the “% Inhibition” value was -6% and the Z score was 1.11.
For `Cc1ccc(S(=O)(=O)N[C@H]2CCN(Cc3ccccc3)C2)s1`, the “% Inhibition” value was -4% and the Z score was 0.49.
For `Cc1ccsc1-c1nnc(CC(=O)NC2CCCCCC2)o1`, the “% Inhibition” value was -13% and the Z score was 1.33.
`CC(C)(C)OC(=O)c1cccc(C(=O)N2CCC3CC3C2)c1` (stereo not drawn) was tested, and the “% Inhibition” value was -7% and the Z score was 1.22.
For `O=S(=O)(Nc1ncn(-c2ccccc2)n1)c1cc(F)ccc1F`, the “% Inhibition” value was 31% and the Z score was -3.47.
With `Cc1cc(C)n(CCCNCc2ccc(-c3cc[nH]n3)o2)n1` the “% Inhibition” value was -3% and the Z score was 0.42.
`C=CCOC[C@@H](O)CN(Cc1ccc(F)cc1F)CC(C)C` was tested, and the “% Inhibition” value was -3% and the Z score was 0.57.
For `CN(Cc1cnccn1)c1cc([C@H]2CCOC2)nc(N)n1`, the “% Inhibition” value was -2% and the Z score was 0.39.
For `O=C1CNC(=O)N1Cc1nc(-c2ccncc2)nn1C1CCCCC1`, the “% Inhibition” value was -11% and the Z score was 1.47.
`COC(=O)CC(C)(C)CC(=O)N1CCC2C(CCN2C(=O)OC(C)(C)C)C1` (stereo not drawn) was tested, and the “% Inhibition” value was 13% and the Z score was -1.3.
`CCOc1ccc(-n2c(C)c3c(C)nn4cc(-c5ccccc5)cc4c3c2C)cc1` was tested, and the “% Inhibition” value was 6% and the Z score was -0.72.
`CC[C@H](C)c1ccc(NC(=O)COc2ccc(C(=O)c3ccc(F)cc3)cc2)cc1` was tested, and the “% Inhibition” value was -1% and the Z score was 0.15.
`O=C(N1CCN2CCC[C@H]2C1)C(F)(F)C(F)(F)C(F)(F)C(F)(F)C(F)(F)C(F)(F)F` was tested, and the “% Inhibition” value was -16% and the Z score was 1.42.
With `Cc1ccc2nc(NCC3CC3)n3c(-c4ccccc4F)nnc3c2c1` the “% Inhibition” value was -14% and the Z score was 1.62.
For `CN(C)c1nc(CS(=O)(=O)c2ccccc2)cs1`, the “% Inhibition” value was -5% and the Z score was 0.94.
In the case of `CCOc1ccc(CNC(=NC)NCCCOC)cc1`, the “% Inhibition” value was 0% and the Z score was 0.03.
In the case of `O=C(c1ccccn1)N1CCC[C@H]1c1nc(C2CCOCC2)no1`, the “% Inhibition” value was -17% and the Z score was 2.14.
`COCCS(=O)(=O)NCCN(C)c1ccccn1` was tested, and the “% Inhibition” value was 4% and the Z score was -0.56.
For `CCC[C@]1(CO)CCCN(Cc2ccc(OCC(=O)N3CCCC3)cc2)C1`, the “% Inhibition” value was -16% and the Z score was 2.05.
With `Cc1nn(-c2ccccc2Cl)c2c1[C@@H](c1ccc3c(c1)OCO3)CC(=O)N2` the “% Inhibition” value was -8% and the Z score was 0.87.
`Cc1cc2c(cc1-n1cnnc1)OCO2` was tested, and the “% Inhibition” value was -3% and the Z score was 0.47.
In the case of `Cc1cnn(C2CN(CC(=O)NC(C3CC3)C3CC3)C2)c1`, the “% Inhibition” value was 5% and the Z score was -0.96.
In the case of `Cc1nnc(CN(C(=O)c2cc(F)c(F)cc2Cl)C(C)(C)C)o1`, the “% Inhibition” value was -13% and the Z score was 1.58.
`COc1ccc(C(=O)N2CCC3(CC2)C[C@@H](O)CCO3)cc1` was tested, and the “% Inhibition” value was 32% and the Z score was -4.6.
In the case of `O=C(Cn1cccn1)Nc1ccccc1-c1ccccc1`, the “% Inhibition” value was -2% and the Z score was 0.29.
With `O=C(Cn1cccc1-c1nc(-c2cccc(Cl)c2)no1)N1CCOCC1` the “% Inhibition” value was -8% and the Z score was 1.47.
With `O=C(NCCc1nccn1Cc1ccccc1)[C@@H]1CCCO1` the “% Inhibition” value was -14% and the Z score was 2.03.
With `C[C@H]1CN(C(=O)c2cccc(-n3nccc3C(F)(F)F)c2)CCN1` the “% Inhibition” value was 3% and the Z score was -0.31.
`CCOc1ccc(-c2nn3c(-c4ccccc4C(=O)O)nc4ccccc4c3nc2=O)cc1` was tested, and the “% Inhibition” value was -3% and the Z score was 0.37.
In the case of `O=C(Nc1ccccc1C(F)(F)F)C1CCN(S(=O)(=O)Cc2cccc(Cl)c2)CC1`, the “% Inhibition” value was -2% and the Z score was 0.42.
For `CCCCn1c(Nc2nc3ccccc3n2C)nc2ccccc21`, the “% Inhibition” value was -13% and the Z score was 2.04.
With `CCN=C(NCc1cc(CC)no1)NC[C@H]1COc2ccccc2O1` the “% Inhibition” value was -17% and the Z score was 1.54.
With `Cc1cc(C(C)C)nc(N2CCN(S(=O)(=O)CC3CCCC3)CC2)n1` the “% Inhibition” value was -8% and the Z score was 0.88.
For `C[C@H]1NC(=O)N(CCc2nc(C(F)(F)F)cs2)C1=O`, the “% Inhibition” value was 38% and the Z score was -5.47.
With `O=C(NC[C@@H]1COc2ccccc2C1)c1n[nH]c2c1CCCC2` the “% Inhibition” value was -16% and the Z score was 2.48.
For `Cc1ccc(C)n1NC(=O)COc1ccc(Br)cc1`, the “% Inhibition” value was -37% and the Z score was 4.34.
For `Cc1cc(C)c(CNCC(C)(C)CCCO)cc1C`, the “% Inhibition” value was 3% and the Z score was -0.26.
In the case of `O=C(c1cc2ccccc2[nH]1)N1CC[C@H](n2nccn2)C1`, the “% Inhibition” value was 3% and the Z score was -0.48.
`COC[C@@H]1[C@H](NC(=O)c2cc(Cl)ccc2F)[C@H]2CCO[C@H]21` was tested, and the “% Inhibition” value was 2% and the Z score was -0.18.
With `COc1ccc2c(c1)CCN(c1cc(N3CCC(O)CC3)ncn1)CC2` the “% Inhibition” value was -6% and the Z score was 1.14.
For `CCN1CCN(c2c(CN(CC(C)C)C(=O)c3cccc(Br)c3)c(C)nn2-c2cccc(F)c2)CC1`, the “% Inhibition” value was 1% and the Z score was -0.17.
`CCc1csc(CCNC(=O)c2ccon2)n1` was tested, and the “% Inhibition” value was -8% and the Z score was 1.51.
With `N#Cc1cnn2ccn(C[C@H]3CCCS(=O)(=O)C3)c12` the “% Inhibition” value was -5% and the Z score was 1.07.
`C[C@@H](CC(=O)N1CCCN(CC2CCC2)CC1)N1CCCCC1=O` was tested, and the “% Inhibition” value was 0% and the Z score was -0.05.
In the case of `Cc1cc(CN2CCN([C@@H](C)c3ncc(C)o3)CC2)on1`, the “% Inhibition” value was -5% and the Z score was 0.77.
`N#Cc1ccc(S(=O)(=O)Nc2cccc3nc[nH]c23)cc1` was tested, and the “% Inhibition” value was -17% and the Z score was 2.26.
For `COc1ccc(OC)c(-c2cnc(-c3ccc(CNC(=O)c4c(Cl)cc(Cl)cc4Cl)cc3)[nH]2)c1`, the “% Inhibition” value was 10% and the Z score was -1.33.
`CCc1cnc(N[C@H]2CCCN(Cc3ccccc3)C2)nc1` was tested, and the “% Inhibition” value was -11% and the Z score was 2.09.
For `Cc1ccc(Oc2nc(N3CCCCC3)nc3c2CN(Cc2cc(C)ccc2F)CC3)cc1`, the “% Inhibition” value was -3% and the Z score was 0.47.
With `CC(C)[C@@H]1N(C(=O)NCCc2cccc(C(F)(F)F)n2)CC12CC=CC2` the “% Inhibition” value was -10% and the Z score was 2.18.
`CCCN(CC(=O)Nc1ccccc1C)C(=O)COC(=O)c1cncc(OCC(F)F)c1` was tested, and the “% Inhibition” value was -12% and the Z score was 1.07.
`Cc1cnn(Cc2ccccc2F)c1NC(=O)[C@@H]1CN(C)CCO1` was tested, and the “% Inhibition” value was 1% and the Z score was -0.06.
In the case of `Brc1ccc2nc(Nc3ccncc3)nc(-c3ccccc3)c2c1`, the “% Inhibition” value was 4% and the Z score was -0.82.
With `Cc1cc(C)cc([C@@H](O)CNC(=O)c2cc(F)ccc2N2CCN(C)CC2)c1` the “% Inhibition” value was -5% and the Z score was 0.79.
In the case of `CC(C)N1CCC(N2CCN(c3cc(C4CC4)ncn3)C[C@@H]2CCO)CC1`, the “% Inhibition” value was 7% and the Z score was -1.02.
In the case of `Cc1cccc(-c2cc(N3CCN(C(=O)c4cc(F)ccc4Cl)CC3)ncn2)c1`, the “% Inhibition” value was -4% and the Z score was 0.59.
With `Cn1cc(-c2ccccc2CNC(=O)C(C)(C)CO)cn1` the “% Inhibition” value was -7% and the Z score was 1.35.
In the case of `Cc1nc(Nc2ccc(F)cn2)sc1C(=O)NCc1ccccn1`, the “% Inhibition” value was -9% and the Z score was 1.6.
For `CC(C)(C)n1cncc1[C@H]1CCCN(C(=O)NCCc2cn[nH]c2)C1`, the “% Inhibition” value was -8% and the Z score was 0.98.
In the case of `O=C(Cc1ccccc1)N[C@@H]1CN(c2ccncn2)C[C@H]1CO`, the “% Inhibition” value was 3% and the Z score was -0.43.
`COc1ccccc1CNC(=O)CN1CCCc2nc(-c3ccncc3)ncc2C1=O` was tested, and the “% Inhibition” value was 1% and the Z score was -0.09.
With `CCN1CCN([C@H]2CCN(C(=O)c3cc(C)nc4c3cnn4C)C2)CC1` the “% Inhibition” value was 9% and the Z score was -0.86.
In the case of `CC(C)n1nccc1N(CC(=O)N(C)C1CCCCC1)S(=O)(=O)c1ccccc1`, the “% Inhibition” value was -18% and the Z score was 2.86.
`Cn1cc(Cl)cc1C(=O)N1CC[C@@]2(CCCN(C3CCCCC3)C2=O)C1` was tested, and the “% Inhibition” value was -5% and the Z score was 0.75.
`CCc1noc(C)c1CNC(=O)N1CC2(CCC2)[C@@H]1C1CCOCC1` was tested, and the “% Inhibition” value was 2% and the Z score was -0.33.
